Laboratory results reported in the supplement of paper PMC8728848.
This is one part of the list.

Tests used:
Assay in all cases: glycan array binding signal (z-score within array); higher = stronger binding
Settings in all cases: glycan notation: IUPAC condensed, linker removed
GalNAc(b1-3)Gal = biological target: GalNAc(b1-3)Gal
How it was run: (§1)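 From the Consortium for Functional Glycomics database, 3228 arrays were curated, keeping only those whose protein sequence was available. Binding is given as a within-array Z-score averaged across arrays sharing a protein sequence and across linkers. Negative Z-scores can be read as non-binding.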

[1] = biological target: GalNAc(b1-3)Gal(a1-4)Gal(b1-4)GlcNAc
How it was run: as §1

GalNAc(b1-3)GalNAc = biological target: GalNAc(b1-3)GalNAc
How it was run: as §1

GalNAc(b1-4)GlcNAc = biological target: GalNAc(b1-4)GlcNAc
How it was run: as §1

Glc(a1-4)Glc = biological target: Glc(a1-4)Glc
How it was run: as §1

Glc(a1-6)Glc(a1-6)Glc = biological target: Glc(a1-6)Glc(a1-6)Glc
How it was run: as §1

Glc(b1-4)Glc = biological target: Glc(b1-4)Glc
How it was run: as §1

Glc(b1-6)Glc = biological target: Glc(b1-6)Glc
How it was run: as §1

GlcA(b1-3)Gal = biological target: GlcA(b1-3)Gal
How it was run: as §1

GlcA(b1-3)GlcNAc = biological target: GlcA(b1-3)GlcNAc
How it was run: as §1

GlcA(b1-6)Gal = biological target: GlcA(b1-6)Gal
How it was run: as §1

[2] = biological target: GlcNAc(a1-3)Gal(b1-4)GlcNAc
How it was run: as §1

[3] = biological target: GlcNAc(a1-6)Gal(b1-4)GlcNAc
How it was run: as §1

[4] = biological target: GlcNAc(b1-2)Gal(b1-3)GalNAc
How it was run: as §1

[5] = biological target: GlcNAc(b1-2)Man(a1-3)[GlcNAc(b1-2)Man(a1-6)]Man(b1-4)GlcNAc(b1-4)GlcNAc
How it was run: as §1

GlcNAc(b1-3)Gal = biological target: GlcNAc(b1-3)Gal
How it was run: as §1

[6] = biological target: GlcNAc(b1-3)Gal(b1-3)GalNAc
How it was run: as §1

GlcNAc(b1-3)Gal(b1-4)Glc = biological target: GlcNAc(b1-3)Gal(b1-4)Glc
How it was run: as §1

[7] = biological target: GlcNAc(b1-3)Gal(b1-4)GlcNAc
How it was run: as §1

[8] = biological target: GlcNAc(b1-3)Gal(b1-4)GlcNAc(b1-3)Gal(b1-4)GlcNAc
How it was run: as §1

GlcNAc(b1-3)GalNAc = biological target: GlcNAc(b1-3)GalNAc
How it was run: as §1

GlcNAc(b1-3)Man = biological target: GlcNAc(b1-3)Man
How it was run: as §1

[9] = biological target: GlcNAc(b1-3)[GlcNAc(b1-4)][GlcNAc(b1-6)]GlcNAc
How it was run: as §1

[10] = biological target: GlcNAc(b1-3)[GlcNAc(b1-6)]Gal(b1-4)GlcNAc
How it was run: as §1

[11] = biological target: GlcNAc(b1-3)[GlcNAc(b1-6)]GalNAc
How it was run: as §1

[12] = biological target: GlcNAc(b1-3)[GlcNAc(b1-6)]GlcNAc(b1-4)GlcNAc
How it was run: as §1

[13] = biological target: GlcNAc(b1-4)Gal(b1-4)GlcNAc
How it was run: as §1

GlcNAc(b1-4)GlcNAc = biological target: GlcNAc(b1-4)GlcNAc
How it was run: as §1

[14] = biological target: GlcNAc(b1-4)GlcNAc(b1-4)GlcNAc
How it was run: as §1

[15] = biological target: GlcNAc(b1-4)GlcNAc(b1-4)GlcNAc(b1-4)GlcNAc(b1-4)GlcNAc
How it was run: as §1

[16] = biological target: GlcNAc(b1-4)GlcNAc(b1-4)GlcNAc(b1-4)GlcNAc(b1-4)GlcNAc(b1-4)GlcNAc
How it was run: as §1

[17] = biological target: GlcNAc(b1-4)[GlcNAc(b1-6)]GalNAc
How it was run: as §1

[18] = biological target: GlcNAc(b1-6)Gal(b1-4)GlcNAc
How it was run: as §1

GlcNAc(b1-6)GalNAc = biological target: GlcNAc(b1-6)GalNAc
How it was run: as §1

GlcNAc3Prop(b1-4)GlcNAc = biological target: GlcNAc3Prop(b1-4)GlcNAc
How it was run: as §1

Kdn(a2-3)Gal(b1-3)GlcNAc = biological target: Kdn(a2-3)Gal(b1-3)GlcNAc
How it was run: as §1

Kdn(a2-3)Gal(b1-4)GlcNAc = biological target: Kdn(a2-3)Gal(b1-4)GlcNAc
How it was run: as §1

[19] = biological target: Man(a1-2)Man(a1-2)Man(a1-3)Man
How it was run: as §1

[20] = biological target: Man(a1-2)Man(a1-2)Man(a1-6)[Man(a1-3)]Man
How it was run: as §1

Man(a1-2)Man(a1-3)Man = biological target: Man(a1-2)Man(a1-3)Man
How it was run: as §1

[21] = biological target: Man(a1-2)Man(a1-3)[Man(a1-2)Man(a1-6)]Man
How it was run: as §1

[22] = biological target: Man(a1-2)Man(a1-3)[Man(a1-2)Man(a1-6)]Man(a1-6)[Man(a1-2)Man(a1-2)Man(a1-3)]Man
How it was run: as §1

[23] = biological target: Man(a1-2)Man(a1-3)[Man(a1-2)Man(a1-6)]Man(a1-6)[Man(a1-2)Man(a1-2)Man(a1-3)]Man(b1-4)GlcNAc(b1-4)GlcNAc
How it was run: as §1

[24] = biological target: Man(a1-2)Man(a1-3)[Man(a1-6)]Man(a1-6)[Man(a1-2)Man(a1-3)]Man(b1-4)GlcNAc(b1-4)GlcNAc
How it was run: as §1

[25] = biological target: Man(a1-2)Man(a1-6)[Man(a1-3)]Man(a1-6)[Man(a1-2)Man(a1-2)Man(a1-3)]Man
How it was run: as §1

B1: L-Selectin (Mus musculus), P18337 (protein)
chain: MVFPWRCEGTYWGSRNILKLWVWTLLCCDFLIHHGTHCWTYHYSEKPMNWENARKFCKQNYTDLVAIQNKREIEYLENTLPKSPYYYWIGIRKIGKMWTWVGTNKTLTKEAENWGAGEPNNKKSKEDCVEIYIKRERDSGKWNDDACHKRKAALCYTASCQPGSCNGRGECVETINNHTCICDAGYYGPQCQYVVQCEPLEAPELGTMDCIHPLGNFSFQSKCAFNCSEGRELLGTAETQCGASGNWSSPEPICQVVQCEPLEAPELGTMDCIHPLGNFSFQSKCAFNCSEGRELLGTAETQCGASGNWSSPEPICQETNRSFSKIKEGDYNPLFIPVAVMVTAFSGLAFLIWLARRLKKGKKSQERMDDPY
glycan array binding signal (z-score) (GalNAc(b1-3)Gal): -0.436 | glycan array binding signal (z-score) [1]: -0.276 | glycan array binding signal (z-score) (GalNAc(b1-3)GalNAc): -0.258 | glycan array binding signal (z-score) (GalNAc(b1-4)GlcNAc): -0.456 | glycan array binding signal (z-score) (Glc(a1-4)Glc): -0.339 | glycan array binding signal (z-score) (Glc(a1-6)Glc(a1-6)Glc): -0.045 | glycan array binding signal (z-score) (Glc(b1-4)Glc): 0.296 | glycan array binding signal (z-score) (Glc(b1-6)Glc): -0.127 | glycan array binding signal (z-score) (GlcA(b1-3)Gal): -0.09 | glycan array binding signal (z-score) (GlcA(b1-3)GlcNAc): -0.009 | glycan array binding signal (z-score) (GlcA(b1-6)Gal): 0.307 | glycan array binding signal (z-score) [2]: -0.209 | glycan array binding signal (z-score) [3]: -0.561 | glycan array binding signal (z-score) [4]: -0.172 | glycan array binding signal (z-score) [5]: 0.511 | glycan array binding signal (z-score) (GlcNAc(b1-3)Gal): -0.015 | glycan array binding signal (z-score) [6]: -0.272 | glycan array binding signal (z-score) (GlcNAc(b1-3)Gal(b1-4)Glc): -0.116 | glycan array binding signal (z-score) [7]: 0.011 | glycan array binding signal (z-score) [8]: -0.337 | glycan array binding signal (z-score) (GlcNAc(b1-3)GalNAc): -0.288 | glycan array binding signal (z-score) (GlcNAc(b1-3)Man): 0.432 | glycan array binding signal (z-score) [9]: -0.224 | glycan array binding signal (z-score) [10]: -0.379 | glycan array binding signal (z-score) [11]: -0.031 | glycan array binding signal (z-score) [12]: -0.563 | glycan array binding signal (z-score) [13]: -0.044 | glycan array binding signal (z-score) (GlcNAc(b1-4)GlcNAc): -0.057 | glycan array binding signal (z-score) [14]: 0.255 | glycan array binding signal (z-score) [15]: 0.13 | glycan array binding signal (z-score) [16]: -0.196 | glycan array binding signal (z-score) [17]: -0.492 | glycan array binding signal (z-score) [18]: -0.368 | glycan array binding signal (z-score) (GlcNAc(b1-6)GalNAc): -0.412 | glycan array binding signal (z-score) (GlcNAc3Prop(b1-4)GlcNAc): -0.444 | glycan array binding signal (z-score) (Kdn(a2-3)Gal(b1-3)GlcNAc): -0.025 | glycan array binding signal (z-score) (Kdn(a2-3)Gal(b1-4)GlcNAc): -0.552 | glycan array binding signal (z-score) [19]: -0.124 | glycan array binding signal (z-score) [20]: -0.473 | glycan array binding signal (z-score) (Man(a1-2)Man(a1-3)Man): -0.133 | glycan array binding signal (z-score) [21]: -0.185 | glycan array binding signal (z-score) [22]: -0.183 | glycan array binding signal (z-score) [23]: -0.206 | glycan array binding signal (z-score) [24]: -0.4 | glycan array binding signal (z-score) [25]: -0.538
